# From the supplement of paper PMC12217912
# Some of the results follow. The full chains were built here from the parent and the listed change. Inactive controls read about 0.05.
# B1: TEV protease; numbered along this chain (parent)
# chain: MGESLFKGPRDYNPISSSICHLTNESDGHTTSLYGIGFGPFIITNKHLFRRNNGTLVVQSLHGVFKVKDTTTLQQHLVDGRDMIIIRMPKDFPPFPQKLKFREPQREERICLVTTNFQTKSMSSMVSDTSCTFPSGDGIFWKHWIQTKDGQCGSPLVSTRDGFIVGIHSASNFTNTNNYFTSVPKNFMELLTNQEAQQWVSGWRLNADSVLWGGHKVFMVKPEEPFQPVKEATQL
# Variants of: B1
# Test: raw area under fraction-flipped curve 0-4 h after induction (AUC4h, not background-subtracted), DNA-recorder readout of cleavage of the substrate (dimensionless); higher = more cleavage of the substrate by the protease variant
# Details: temperature: 34 °C; time window: 0-4 h after rhamnose induction
# 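Also: Bxb1 expression induced with 0.2% (w/v) L-rhamnose at OD600 near 0.5, cultures sampled hourly, flipped fraction per protease–substrate barcode pair counted by paired-end Illumina sequencing.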
Variant,area with substrate DNLYFQS,area with substrate HNLYFQS,area with substrate INLYFQS,area with substrate KNLYFQS,area with substrate NNLYFQS,area with substrate PNLYFQS,area with substrate RNLYFQS,area with substrate TNLYFQS,area with substrate WNLYFQS,area with substrate YNLYFQS,area with substrate FNLYFQS,area with substrate GNLYFQS,area with substrate LNLYFQS,area with substrate MNLYFQS,area with substrate QNLYFQS,area with substrate VNLYFQS,area with substrate SNLYFQS
MGESLFKGPRDYNPISSSICHLTNESDGHTTSLYGIGFGPFIITNKHLFRRNNGTLVVQSLHGVFKVKDTTTLQQHLVDGRDMIIIRMPKDFPPFPQKLKFREPQREERICLVTTNFQTESMSSMVSDTSCTFPSGDGIFWKHWIQTKDGQCGSPLVSTRDGFIVGIHSASNFTNTNNYFTSVPKNFMELLTNQEAQQWVSGWRLNADSVLWGGHKVFMVKPEEPFQPVKEATQL [K120E],0.0803,0.0605,0.0893,0.067,0.0618,0.083,0.0531,0.0606,0.0614,0.0615,,,,,,,
MGESLFKGPRDYNPISSSICHLTNESDGHTTSLYGIGFGPFIITNKHLFRRNNGTLVVQSLHGVFKVKDTTTLQQHLVDGRDMIIIRMPKDFPPFPQKLKFREPQREERICLVTTNFQTTSMSSMVSDTSCTFPSGDGIFWKHWIQTKDGQCGSPLVSTRDGFIVGIHSASNFTNTNNYFTSVPKNFMELLTNQEAQQWVSGWRLNADSVLWGGHKVFMVKPEEPFQPVKEATQL [K120T],0.075,0.0632,,,,,,,,,0.105,0.0692,0.0643,,,,
MGESLFKGPRDYNPISSSICHLTNESDGHTTSLYGIGFGPFIITNKHLFRRNNGTLVVQSLHGVFKVKDTTTLQQHLVDGRDMIIIRMPKDFPPFPQKLKFREPQREERICLVTTNFQTKSMSSMVSDTSCTFPSGDGIFWKHFIQTKDGQCGSPLVSTRDGFIVGIHSASNFTNTNNYFTSVPKNFMELLTNQEAQQWVSGWRLNADSVLWGGHKVFMVKPEEPFQPVKEATQL [W144F],0.082,,0.0618,,0.0823,0.0759,0.0768,0.0721,,,0.0682,0.057,0.064,0.0725,0.0801,,
MGESLFKGPRDYNPISSSICHLTNESDGHTTSLYGIGFGPFIITNKHLFRRNNGTLVVQSLHGVFKVKDTTTLQQHLVDGRDMIIIRMPKDFPPFPQKLKFREPQREERICLVTTNFQTKSMSSMVSDTSCTFPSGDGIFWKHWIQTKDGQCGSPLVSTRDGFIVGIHSASNFTNHNNYFTSVPKNFMELLTNQEAQQWVSGWRLNADSVLWGGHKVFMVKPEEPFQPVKEATQL [T176H],,0.0682,0.0607,0.0607,0.0576,0,,0.0516,0.0549,0.0754,0.0585,,0.0627,0.0711,,0.0763,
MGESLFKGPRDYNPISSSICHLTNESDGHTTSLYGIGFGPFIITNKHLFRRNNGTLVVQSLHGVFKVKDTTTLQQHLVDGRDMIIIRMPKDFPPFPQKLKFREPQREERICLVTTNFQTKSMSSMVSDTSCTFPSGDGIFWKHWIQTKDGQCGSPLVSTRDGFIVGIHSASNFTNENNYFTSVPKNFMELLTNQEAQQWVSGWRLNADSVLWGGHKVFMVKPEEPFQPVKEATQL [T176E],,0.0532,0.0671,,,0.0681,,,0.0548,0.0459,0.0603,0.0792,0.0607,0.0678,,0.0571,
MGESLFKGPRDYNPISSSICHLTNESDGHTTSLYGIGFGPFIITNKHLFRRNNGTLVVQSLHGVFKVKDTTTLQQHLVDGRDMIIIRMPKDFPPFPQKLKFREPQREERICLVTTNFQTKSMSSMVSDTSCTFPSGDGIFWKHWIQTKDGQCGSPLVSTRDGFIVGIHSASNFTNTNNYFTSVPKNFMELLTNQEAQQWVSGWRLNADSVLWGGHKVFMVKPEDPFQPVKEATQL [E224D],0.091,0.067,,,,0.0634,,0.0566,0.0577,0.0562,0.0505,0.0672,,0.0562,,,
MGESLFKGPRDYNPISSSICHLTNESDGHTTSLYGIGFGPFIITNKHLFRRNNGTLVVQSLHGVFKVKDTTTLQQHLVDGRDMIIIRMPKDFPPFPQKLKFREPQREERICLVTTNFQTKSMSSMVSDTSCTFPSGDGIFWKHWIQTKDGQCGSPLVSTFDGFIVGIHSASNFTNTNNYFTSVPKNFMELLTNQEAQQWVSGWRLNADSVLWGGHKVFMVKPEEPFQPVKEATQL [R160F],0.0787,0.0745,0.0767,0.0693,,0.0775,,,0.0588,,0.0743,0.076,0.0685,0.073,,0.0598,0.0671
MGESLFKGPRDYNPISSSICHLTNESDGHTTSLYGIGFGPFIITNKHLFRRNNGTLVVQSLHGEFKVKDTTTLQQHLVDGRDMIIIRMPKDFPPFPQKLKFREPQREERICLVTTNFQTKSMSSMVSDTSCTFPSGDGIFWKHWIQTKDGQCGSPLVSTRDGFIVGIHSASNFTNTNNYFTSVPKNFMELLTNQEAQQWVSGWRLNADSVLWGGHKVFMVKPEEPFQPVKEATQL [V64E],,0.0368,,,,0.0738,0.0658,0.0673,0.0186,,0.0689,,,0.0564,,,
MGESLFKGPRDYNPISSSICHLTNESDGHTTSLYGIGFGPFIITNKHLFRRNNGTLVVQSLHGVFKVKDTTTLQQHLVDDRDMIIIRMPKDFPPFPQKLKFREPQREERICLVTTNFQTKSMSSMVSDTSCTFPSGDGIFWKHWIQTKDGQCGSPLVSTRDGFIVGIHSASNFTNTNNYFTSVPKNFMELLTNQEAQQWVSGWRLNADSVLWGGHKVFMVKPEEPFQPVKEATQL [G80D],,0.0685,,,,0.0644,,0.0673,0.0245,0.0755,0.075,0.0747,,,0.0831,0.0594,
MGESLFKGPRDYNPISSSICHLTNESDGHTTSLYGIGFGPFIITNKHLFRRNNGTLVVQSLHGVFKVKDTTTLQQHLVDGRDMIIIRMPKDFPPFPQKLKFREPQREERICLVTTNFQTKSMSSMVSDTSCTFPSGDGIFWKHWIQTKDGQCGSPLVSTRDGFIVGISSASNFTNTNNYFTSVPKNFMELLTNQEAQQWVSGWRLNADSVLWGGHKVFMVKPEEPFQPVKEATQL [H168S],0.0695,0.0665,,,,0.066,,,,,,,0.0452,,,,0.0642
